Assay results taken from patent publication US20170247431A1 (OMEROS, published 2017).

T1: human MASP-1 (human, UniProt P48740 20-699)
T1 sequence: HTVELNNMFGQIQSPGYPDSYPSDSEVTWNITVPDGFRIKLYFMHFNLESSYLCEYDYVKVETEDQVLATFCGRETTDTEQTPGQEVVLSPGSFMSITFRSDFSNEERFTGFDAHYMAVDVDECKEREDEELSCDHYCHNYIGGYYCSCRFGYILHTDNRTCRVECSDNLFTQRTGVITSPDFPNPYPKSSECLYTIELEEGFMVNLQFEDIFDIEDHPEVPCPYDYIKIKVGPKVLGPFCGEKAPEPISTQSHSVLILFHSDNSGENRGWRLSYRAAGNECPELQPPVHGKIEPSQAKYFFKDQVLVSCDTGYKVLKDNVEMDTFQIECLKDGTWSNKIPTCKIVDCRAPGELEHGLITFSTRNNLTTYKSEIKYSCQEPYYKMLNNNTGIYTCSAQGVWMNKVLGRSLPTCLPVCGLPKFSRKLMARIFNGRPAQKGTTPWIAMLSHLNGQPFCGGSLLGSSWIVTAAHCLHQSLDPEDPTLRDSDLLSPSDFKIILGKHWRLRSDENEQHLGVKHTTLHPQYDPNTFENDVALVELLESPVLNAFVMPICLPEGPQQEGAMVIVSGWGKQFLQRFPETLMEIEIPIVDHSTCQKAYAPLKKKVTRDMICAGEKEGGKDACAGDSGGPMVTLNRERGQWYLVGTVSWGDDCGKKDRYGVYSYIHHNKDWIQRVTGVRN

B1: SGMI-1Fc (Fc fusion)
chain: LEVTCEPGTTFKDKCNTCRCGSDGKSAFCTRKLCYQGTGGGSGSSSRS[human IgG1 Fc not written out]
B2: SGMI-2Fc (Fc fusion)
chain: LEVTCEPGTTFKDKCNTCRCGSDGKSAVCTKLWCNQGTGGGSGSSSRS[human IgG1 Fc not written out]

Experiments:
human MASP-1 = molecular target: T1, human MASP-1; test: cell-based or functional assay
human MASP-2 = human MASP-2 (human, UniProt O00187 16-686); test: cell-based or functional assay
human MASP-2, sequence (O00187 16-686 limits assumed): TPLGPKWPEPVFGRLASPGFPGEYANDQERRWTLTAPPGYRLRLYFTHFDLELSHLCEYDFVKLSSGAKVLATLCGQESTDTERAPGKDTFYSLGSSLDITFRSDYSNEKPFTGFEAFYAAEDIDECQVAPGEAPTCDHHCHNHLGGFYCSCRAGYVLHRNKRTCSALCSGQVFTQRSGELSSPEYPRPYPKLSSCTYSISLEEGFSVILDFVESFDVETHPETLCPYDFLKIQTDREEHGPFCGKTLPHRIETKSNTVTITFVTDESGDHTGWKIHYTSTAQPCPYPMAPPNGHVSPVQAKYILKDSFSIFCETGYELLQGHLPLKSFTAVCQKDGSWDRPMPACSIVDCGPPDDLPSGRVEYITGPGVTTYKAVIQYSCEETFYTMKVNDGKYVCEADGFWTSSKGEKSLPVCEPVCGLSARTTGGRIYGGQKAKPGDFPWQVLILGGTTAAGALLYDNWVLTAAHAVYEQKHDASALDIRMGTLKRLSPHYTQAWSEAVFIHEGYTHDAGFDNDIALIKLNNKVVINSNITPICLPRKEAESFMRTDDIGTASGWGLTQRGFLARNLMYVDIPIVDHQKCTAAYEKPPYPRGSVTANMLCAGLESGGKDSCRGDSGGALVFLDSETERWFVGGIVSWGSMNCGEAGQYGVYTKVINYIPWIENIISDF

| Binder | IC50 of inhibition of C3b deposition from 1% normal human serum in mannan-coated ELISA wells (human MASP-1) [nM] | IC50 of inhibition of C3b deposition from 1% normal human serum in mannan-coated ELISA wells (human MASP-2) [nM] |
| --- | --- | --- |
| B1 | ~27 |  |
| B2 |  | ~300 |
